Source: the RNAGym collection of RNA variant scans (doi:10.1073/pnas.2313332121)
Variants at the background level are over-represented here.

B1: TPR 5TU (parent)
chain: GGAUCUUCUCGAUCUAACAAAAAAGACAAAUCUGCCACAAAGCUUGAGAGCAUCUUCGGAUGCAGAGGCGGCAGCCUUCGGUGGCGCGAUAGCGCCAACGUUCUCAACUAUGACACGCAAAACGCGUGCUCCGUUGAAUGGAGUUUAUCAUG

Variants of: B1
Assay: polymerase ribozyme fitness, log enrichment relative to wild type (log ratio); higher = more active; in vitro selection for triplet polymerase activity
In short: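 After PCR construction and transcription, each subunit's mutant library from a heterodimeric triplet polymerase ribozyme was annealed with a biotinylated primer, the partner subunit and triplets. Incubation was frozen, at −7 °C, and extended constructs were gel-excised, bound to streptavidin beads and amplified by RT-PCR, in one selection round done in triplicate. Fitness is the logarithm of a genotype's enrichment divided by that of the wild type, from inverse-variance-weighted replicate averages of Illumina-sequenced inputs and outputs. The base of the logarithm is 2, and genotypes needed ≥10 input reads and ≥1 read per output.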

Variant | polymerase ribozyme fitness (log ratio)
GGAUCUUAUCGAUCUAACACAAAAGACAAAUCUGCCACAAAGCUUGAGACCAACUUCAGAUGCAGGGGCGGCAGCCUUCGGUGUCGCGAUAUCGCCAACGUUCUCAACUAUGACACGCAAAACGCGUGCUCCGGUGAAUGGAGUUUAUCAUG [C8A A20C G50C U53A G58A A66G G84U G92U U134G] | ≤ -4.2
GGAUCUUAUCGAUCUAACAGAAAAGACAAAUCUGCCACAAAGCUUGAGAGCAUCUUCGGAUGCAGAGCCGGCAGCCUUCGGUGGAGCGAUAGCGCCAACGUUCUCAACUAUGACACGCAAAACGCAUGCUCCGUUGAAUGGAGUUUAUCAUG [C8A A20G G68C C85A G126A] | ≤ -4.2
GGAUCUUAUCGAUCUAACAUAAAAGACAAAUCUGCUACAAAGCUUGAGAGCAUCUUCGGAUGGAGAGGCGGCAGCCUUCGGUGGCGCGAUAGCGCUAAUGUUCUCAACUAUGACACGCAAAACGCGUGCUCCGUUGAAUGGAGUUUAUCAUU [C8A A20U C36U C63G C96U C99U G152U] | ≤ -4.2
GGAUCUUAUCGAUCUAACAUAAAAGACAAAUCUGCCACAAACGAUGAGAGCAUCUUCGGAUGCAGAGGCGGCAGCCUUCGGUGGCGCGAUAGCGCCAACGUUCUCAACUAUGUCACGCAAAACGCGUGCUCCGUUGAAUGGCGUUUAUCAUG [C8A A20U G42C C43G U44A A113U A142C] | ≤ -4.2
GGAUCUUAUCGAUCUAACAUAAAAGACAAAUCUGCCACAAAGCUUGAUAGCAUCUUCGGAUGCAGAGGCGGCAGCCUUCGGUGGCGGGAUCGCGCCAACGUUCUCAACUAUGACACGCAAAACGCGUGCUACGUUGAAUGGAGUUUAUCAUG [C8A A20U G48U C87G A91C C131A] | ≤ -4.2
GGAUCUUAUCGAUCUAACAAGAAAGACAACUCUGCCACAAAGCUUGAGAGCAUCUUCGGAUGCAGAGGCGGCAGCCUUCGGUGGCGCUAUAGCGCCAGCGUUCUGAACUAUGACACGCAAAACGCGUGCUCCGUUGAAUGGAGUUUAUCAUG [C8A A21G A30C G88U A98G C105G] | ≤ -4.2
GGAUCUUAUCGAUCUAACAAUAAAGACAAAUCUGCCACAAAGCUUGAGAGCAUCUUCGGAUGCAGAGGCGGCAGCCUUCGGUGGCGCGAUAGCCCCGACGUUCUCAUCUAUGACACGCAAAACGCGUGCUCCGUUGAAUUGAGGUUAUCAUG [C8A A21U G94C A97G A107U G140U U144G] | ≤ -4.2
GGAUCUUAUCGAUCUAACAAACAAGACAAAUCUGUCACAAAGCUUGACAGCAUCUUCGGAUGCAGAGGCGGCUGCCUUCGGUGGCGCGAUAGCGCCAACGUUCUCAACUAUGACACGCAAAACGCGUGCUCCGUUGAAUGGAGUUUAUCAUG [C8A A22C C35U G48C A73U] | ≤ -4.2
GGAUCUUAUCGAUCUAACAAAGAAGACAAAUCUGCCACAUAGCUUGAGAGCAUCUUCGGAUGCAGAGGCGGCAGCCUUCGGUGGUGCGAUAGCGCCAACGUUCUCAACUAUGACACGCAAAACGCGUGCUCUGUUGAAUGGAGUUUAUCAUG [C8A A22G A40U C85U C132U] | ≤ -4.2
GGAUCUUAUCGAUCUAACAAAGAAGACAAAUCUGCCACAAAGCUUGAGAGCAUCUUCGGAUGCAGAGGCGGCAGCCUUCGGUGGCGAGAUAGCGCCAACGUUCUCAACUAUGACACGCUAAACGCGUGCUCCGAUGAAUGGACUUUAUCAUG [C8A A22G C87A A119U U134A G143C] | ≤ -4.2
GGAUCUUAUCGAUCUAACAAAGAAGACAAAUCUGCCACAAAGCUUGAGACCAUCUUCGGAUGCAGAGGCGGCAGCCUUCGGUGGCGCGAUAGCGCCAACGUUCUCAACUAUGACACGCAAAACGCGUGCUCCGUUGAAUGGAGUUUAUCAUG [C8A A22G G50C] | ≤ -4.2
GGAUCUUAUCGAUCUAACAAAUAAGACAAAUCUGCCACAACGCUUGAGAGCAUCUUCGGAUGCAGAGGCGGCAGCCUUCGGUGGCGCGAUAGAGCCAACGUUCUCAACUAUGACACGCAAAACGCGUGCUCCGUUCAAUGGAGUUUAUCAUG [C8A A22U A41C C93A G136C] | ≤ -4.2
GGAUCUUAUCGAUCUAACAAAAGAGACAAAUCUGCCACAAAGCUUGAGAGCAUCUUGAGAUGCAGAGACGGCAGCCUUCGGUGGGGCGAUAGCGCCAACGUUCUCAACGAUGACACGCAAAACGCGUGCUCCGUUGAAUGGAGUUUAUCAUG [C8A A23G C57G G58A G68A C85G U109G] | ≤ -4.2
GGAUCUUAUCGAUCUAACAAAAUAGACUAAUCUGCCACAAAGCUUGAGAGCAUCUACGGAUGCAGAGGCGGCAGCCCUCGGUGGCUCGAUAGCGCCAACGUUGUCAACUAUGACUCGCAAAACGAGUGCUCCGUUGAAUGGAUUUUAUCAUG [C8A A23U A28U U56A U77C G86U C103G A115U C125A G143U] | ≤ -4.2
GGAUCUUAUCGAUCUAACAAAAAGGACAAAUCUGCCACAACGCUUGAGAGCAUCUUCGGAUGCAGAGGCGGCAGCCUUCGGUGGCGCGAUAGUGCCUACGUUCUCAACUAUGACACGCAGAACGCGUGCUCCGUUGAAUGGAGUUUAUCAUG [C8A A24G A41C C93U A97U A120G] | ≤ -4.2
GGAUCUUAUCGAUCUAACAAAAAUGACAAGUCUGCCACAAAGCUUGAGAGCAUCUUAGGAUGCAGUGGCGGCAGGCUUCGGUGGCGCGAUAGCGGCAACGUUCUCAGCUAUGACACGCAAAACGCGUGCUCCGUUGAAUGGAGUUUAUCAUG [C8A A24U A30G C57A A66U C75G C95G A107G] | ≤ -4.2
GGAUCUUAUCGAUCUAACAAAAAUGACAAAUCGGCCACAAAGCUUGAGAGCAUCUUCGGAUGCAGAGGCGGCAGCCUUCGGUGGCUCGAUCGCGCCAACGUUCUCAACUAUGACACGCAAAACGCGUGGUCCGUUGAAUGGAGUUUAUCAUG [C8A A24U U33G G86U A91C C129G] | ≤ -4.2
GGAUCUUAUCGAUCUAACAAAAAAGUCAAAUCUGCCACAAAGCUUGAGAGCAUCUUCGGAUGCAGAGGCGGCAGCCUUCGGUGGCGCGAUAGCGCCAACGUUCUCAACUAUGACACGCAAAACGCGUGCUCCGUUGAAUGGAGUUUAUCAUG [C8A A26U] | -3.66
GGAUCUUAUCGAUCUAACAAAAAAGACCAAUCUGCCACAAAGCUUGAGAGCAUCUUCGGAUGCAGAGGCGGCAGCCUUCGGUGGCGCGAUAGCGCCAACGUACUCAACUAUGACACGCAAAACGCGUGCUCCGUUGAAUGGAGUUGAUCAUG [C8A A28C U102A U146G] | ≤ -4.2
